# Measurements as given in the supplement of paper PMC10338343.
# ± gives the standard deviation. In all, about 6,600 sequences were measured (“pre-steady-state target cleavage rate”: median about 0.07, highest 2% from about 0.72 on). Only a part is listed here, and it is no random draw.
# Tested on: MIWI (PIWIL1) piRISC loaded with Kctd7 piRNA (30 nt)
# Assay: pre-steady-state target cleavage rate (min^-1); MIWI and MILI are mouse PIWI proteins and EfPiwi is from a freshwater sponge; tags in brackets are library labels; higher = faster piRNA-guided slicing of the target
# Settings: guide: Kctd7 piRNA 5'p-UGUUAAUCUCUCAGAGAAGGUGACAGUGAU; auxiliary factor: 500 nM mouse GTSF1
# How it was run: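 Reactions were run for 0–8 or 0–960 min at 33 °C in HEPES–potassium acetate buffer, combining 1 nM active affinity-purified piRISC with one synthetic guide, […] transcribed, DNA-blocked target RNA library and, in some cases, 500 nM GTSF1 partner protein. Sequencing of uncleaved targets followed, with normalisation to depth and to weakly complementary targets. Three trials were pooled, k3 was capped at 0.0001 min^-1, and the pre-steady-state cleavage rate was taken from a burst-and-steady-state fit.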
# 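Also: 1 nM active piRISC with 0.1 nM target library at 33 °C single turnover.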
row,Sequence,pre-steady-state target cleavage rate
1,UUCAUUGUCACCUUCUCUGAGAGAUUAACA,0.615 ± 0.033
2,UAGUGACUCAUCUUCUCUGAGAGAUUAACA,0.652 ± 0.035
3,UUCACUGUCACCUACUCAGAGAGAUUAACA,0.145 ± 0.015
4,UACACUGUUACCUUCUCUGAGAGAUUAACA,0.441 ± 0.024
5,AUCACAUGUCACCUUCUCUGAGAGAUUAACA,0.467 ± 0.027
6,AUCACUGUCUCCUUCUGUGAGAGAUUAACA,0.642 ± 0.033
7,UAGUGACACACCUUCUCUCAGAGAUUAAGA,0.0126 ± 0.0058
8,UUCACUGUCACCUUCUCAGAGAGUUUAACA,0.365 ± 0.067
9,UACACUGUCACCUACUCUGAGAGAUUUUGA,0.0418 ± 0.012
10,UACAGUGUGACCUUCUCUGAGAGAUUAACA,0.496 ± 0.026
11,UUCACUGUCACGUUGUCUGAGAGAUUAACA,0.285 ± 0.015
12,UAGACUGUCACCUUCACUGUGAGAUUAACA,0.169 ± 0.012
13,UUCAGUGUCACCUUCUCUGAGUGAUUAACA,0.0456 ± 0.008
14,UAGUGACAGUGGAUCUCUGAGAGUUUAUCA,< 0.0001
15,UAGACUGUCACCUUCUCUGAGAGACUAACA,0.349 ± 0.029
16,UACACUGUCACCUUCUCUGAGCAGAUUAACA,0.00798 ± 0.004
17,UACACUGUCACCUUCUCUGAGAGAAAUAGA,0.0252 ± 0.0085
18,AUCACAGUCACCUUCUGUGAGAGAUUAACA,0.552 ± 0.034
19,UAGUGACACACCUUCACUGUGAGAUUAACA,0.0688 ± 0.012
20,UAGUCUGUCACCUACUCUGACAGAUUAACA,0.061 ± 0.013
21,UAGUGUGUCACCUACUCUGAGAGUUUAACA,0.286 ± 0.059
22,AUGUGUGUCACCUUCUCUGAGAGAUUUUGA,0.121 ± 0.026
23,AUCACUGUCACCUAGUCUGAGAGAUAUUGA,0.0229 ± 0.009
24,UAGUGUGUCACCUUCUCUGAGAGAUGUAACA,0.228 ± 0.028

row,Sequence,pre-steady-state target cleavage rate
1,UAGACUGUCAACCUUCUCUGAGAGAUUAACA,0.282 ± 0.023
2,UAGUGACAGACCUUCCCUGAGAGAUUAACA,0.0526 ± 0.0082
3,UAGUCUGUCACCUUCUGUGAGAGAUUAACA,0.231 ± 0.019
4,UAGACUGUCACGUUCUCUGAGAGUUUAACA,0.0806 ± 0.014
5,UUCACUGACACCUUCUCUGAGAGAUUAUCA,0.2 ± 0.034
6,UAGUCUGUCACCUUCACUCAGAGAUUAACA,0.0361 ± 0.0082
7,UAGUGACUCACCUUCUCUGAGAGAUUAACA [g2:g23:cont:t1A],0.514 ± 0.043
8,UAGUGACACUGGUUCUCUGAGAGAUUAAGA,0.0135 ± 0.003
9,UAGUGAGUCACCUUCUGUGAGAGUUUAACA,0.144 ± 0.02
10,UAGUGAGUCACCUUCACAGAGAGAUUAACA,0.046 ± 0.0076
11,UACAGUGUCACCUUCUCUGUGAGAUUAACA,0.259 ± 0.016
12,UAGACUGUCACCUUCUGUGAGAGAUUUACA,0.263 ± 0.025
13,UAGUGAGUCACCUCUCUGAGAGAUUAACA,0.241 ± 0.032
14,UAGUCUGUCACCUUCUCUGAGAGAUUUUCA,0.109 ± 0.019
15,AUCACUGACACCUUCUCUGUGAGAUUAACA,0.2 ± 0.014
16,AUCACUGUCACCUUCUCUGAGAGAUAUAACA,0.415 ± 0.053
17,UAGUGUGUCACCUUCUCUCAGAGAUUUUGA,0.0124 ± 0.006
18,UAGUGAGUCACCUUCUCUGAGAGAUCAACA,0.143 ± 0.027
19,UACACUGUCACGAUCUCUGAGAGAUUAAGA,0.0542 ± 0.013
20,AUCACUGUCUCCAUCUCUGAGAGAUUAACA,0.675 ± 0.041
21,UUCACUGUGUCCUUCUCUGAGAGAUUUUGA,0.0357 ± 0.0098
22,UUCACUGUCUCCUUCACUGAGAGAUUAACA,0.393 ± 0.032
23,AUCACUGUCACCUUCUCUGAGAGAUCAACA,0.315 ± 0.039
24,UAGUGACAGUCCUUCUCUGACUGAUUAUGA,< 0.0001

row,Sequence,pre-steady-state target cleavage rate
1,UAGUCUCACACCUUCUCUGAGAGAUUAAGA,0.0327 ± 0.0072
2,UAGUCUGUCACCUUGUCUGAGAGAUAAACA,0.149 ± 0.02
3,UAGUGUGUCAGCUUCUCUCAGAGAUUAACA,0.088 ± 0.0099
4,UAGUGAGUGACCUACUCUGAGAGAUUAACA,0.298 ± 0.026
5,UAGUCUCACACCUUCUCUGAGAGAUAUUGA,0.00988 ± 0.0039
6,UAGUCUCUGACCUUCUCUGAGAGAUUAACA,0.145 ± 0.013
7,UAGUGAGUCACCUUCUCUGAGAGAUUAACCA,0.464 ± 0.039
8,UACACUGUCACCAUCUCUGAGUGAUUAACA,0.0178 ± 0.0035
9,UUCACUGUCACCUAGACUGAGAGAUUAACA,0.04 ± 0.0094
10,UAGUGUGUCACCUUCUCUGAGACGAUUAACA,0.0199 ± 0.0093
11,UAGUGUGUCACCUUCUCAGAGAGAUUAUGA,0.0716 ± 0.02
12,UAGUGACAGACCUUCUCUGCGAGAUUAACA,0.0382 ± 0.0066
13,UAGUGUGUCACCUUCUCUGAGUCUUUUUGA,0.0618 ± 0.021
14,UAGACUGUGACCUUCUCUGAGAGAUUAUCA,0.246 ± 0.033
15,UAGUGAGUCACCUUCUCUGAGAGAUUCACA,0.0972 ± 0.026
16,UAGUGUGUCACCUUCUGUGAGACAUUAACA,0.0178 ± 0.0067
17,UUCUGUGUCACCUUCUCUGAGAGAUUAAGA,0.16 ± 0.026
18,UAGUGACUCUCCUUCUCUGAGAGAUUAUCA,0.0494 ± 0.0084
19,UACACUGUCACCUUCUCUGUGAGAUAAACA,0.103 ± 0.012
20,UAGUGAGACACGUUCUCUGAGAGAUUAACA,0.379 ± 0.026
21,UAGUGACACUCCUUCUCUGAGAGAUUAACA,0.329 ± 0.026
22,UAGUGUCAGACCUUCUCUGAGAGAUUAAGA,0.0434 ± 0.012
23,UAGUGAGUCAUCCUUCUCUGAGAGAUUAACA,0.132 ± 0.012
24,UAGUCUGUCUCCUUCUCUGAGACAUUAACA,0.0287 ± 0.0064
